Among all 360,000 compounds or so, about 25,000 (6.9%) were called active. The inconclusive results got no clear call from the source; some entries with a clear call stand among them for comparison. Calls follow the shape of the dose curve; as a rule, active = well fitted inhibition curve with a large enough effect; inconclusive = small, poorly fitted or top-dose-only effect; inactive = flat fitted curve, though single readings scatter. A potency beside an inconclusive call is a rough fit, not a confirmed value.
Target: Luciferin 4-monooxygenase (Photinus pyralis) (UniProt P08659)
Assay: qHTS profiling assay for firefly luciferase inhibitor/activator using purifed enzyme and Km concentrations of substrates (counterscreen for miR-21 project); also: nearly all actives have a fitted effect of over 55% in size;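 as to activity change, negative = inhibition: plate controls were vehicle for no effect and reference inhibitor for full effect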
Conditions: purified FLuc, luminescence inhibition; series mostly up to 57.5 µM; activity change, negative = inhibition: at the top concentration
Summary of the method: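 Purified P. pyralis luciferase (10nM final) with 10uM D-luciferin and 10uM ATP (Km levels) in 50mM Tris acetate pH 7.5, 10mM Mg acetate, 0.01% Tween-20, 0.05% BSA; qHTS 6-point titration, ~60 µM downward; luminescence read.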
Potency is read from the fitted curve at half-maximal effect; tags tell the direction and shape of the fitted curve.

UniProt P08659, sequence (P08659 whole entry, looked up): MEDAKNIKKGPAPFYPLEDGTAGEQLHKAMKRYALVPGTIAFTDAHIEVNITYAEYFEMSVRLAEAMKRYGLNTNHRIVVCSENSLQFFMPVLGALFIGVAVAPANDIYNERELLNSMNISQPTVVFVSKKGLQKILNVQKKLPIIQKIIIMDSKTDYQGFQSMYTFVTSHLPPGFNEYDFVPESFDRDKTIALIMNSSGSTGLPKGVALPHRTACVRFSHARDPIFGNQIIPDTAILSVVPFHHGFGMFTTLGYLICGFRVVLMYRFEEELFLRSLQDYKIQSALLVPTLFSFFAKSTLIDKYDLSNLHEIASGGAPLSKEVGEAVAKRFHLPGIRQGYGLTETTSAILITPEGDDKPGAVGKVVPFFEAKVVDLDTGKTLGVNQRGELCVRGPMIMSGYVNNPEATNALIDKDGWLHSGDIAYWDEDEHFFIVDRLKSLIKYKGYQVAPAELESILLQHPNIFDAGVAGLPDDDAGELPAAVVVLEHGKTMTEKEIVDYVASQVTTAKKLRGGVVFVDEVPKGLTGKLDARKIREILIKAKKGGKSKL

**Q.** For `COc1cc(/C=c2\sc3n(c2=O)C(c2ccccc2)C(c2ccccc2)=NN=3)ccc1O` (centres undefined), which Potency is on record?
**A.** Its Potency is inconclusive: 16.9 µM [inhibitor, partial curve].

**Q.** With `Cc1ccc(NS(=O)(=O)c2cc([N+](=O)[O-])ccc2NNC(=S)Nc2cccc(Cl)c2)c(C)c1` as the compound, how does the Potency read?
**A.** The Potency was inconclusive: 37.9 µM [inhibitor, partial curve, poor fit].

**Q.** For `C=C1C=C(C(F)F)n2ncc(C(=O)Nc3ccc(C(C)CC)cc3)c2N1` (centres undefined), which “activity change, negative = inhibition” value is on record?
**A.** The value was inactive: 0.405%.

**Q.** `O=C(NC1CCCCC1)c1c[nH]c2ccc(S(=O)(=O)Nc3ccccc3F)cc2c1=O` was tested. Which Potency did it give?
**A.** Its Potency is inconclusive: 10.7 µM [inhibitor, partial curve].

**Q.** With `CC(C)(C)c1ccc(C(=O)NC(Cc2c[nH]c3ccccc23)C(=O)OCC(=O)c2ccccc2)cc1` (centres undefined) as the compound, how does the Potency read?
**A.** The Potency was inconclusive: 33.8 µM [inhibitor, partial curve, poor fit].

**Q.** For `CCOC(=O)c1ccc(NC(=O)c2c(NCc3sccc3C)sc3c2CCCCC3)cc1`, which Potency is on record?
**A.** Its Potency is inconclusive: 26.9 µM [inhibitor, partial curve].

**Q.** Which “activity change, negative = inhibition” value does the source give for `COc1ccc([C@H]2CC(=O)C=C(c3ccc(CNC(=O)OC(C)(C)C)cc3)C2)cc1` here?
**A.** Its value is inactive: -0.444%.

**Q.** With `CCOC(=O)N1CCC(NC(=O)CS(=O)Cc2nc(-c3ccccc3C)oc2C)CC1` (centres undefined) as the compound, how does the “activity change, negative = inhibition” value read?
**A.** Its value is inactive: 1.08%.

**Q.** With `COc1cccc(/C=N/NC(=O)c2ccc(COc3ccc(Cl)cc3Cl)o2)c1` as the compound, how does the Potency read?
**A.** Its Potency is inconclusive: 12 µM [inhibitor, partial curve].

**Q.** How did the Potency turn out when `Fc1ccc(CNc2ncnc3c2cnn3-c2ccccc2)cc1` was run?
**A.** The Potency was inconclusive: 37.9 µM [inhibitor, partial curve, poor fit].

**Q.** Which Potency does the source give for `CN(C)S(=O)(=O)c1cccc(-c2nnc(-c3ccccc3)o2)c1` here?
**A.** The Potency was active: 23.9 µM.

**Q.** `CC(=O)N1CC=CC1(CC(C)C)C(=O)NCCc1c[nH]c2ccccc12` (centres undefined) was tested. Which Potency did it give?
**A.** The Potency was inconclusive: 37.9 µM [inhibitor, single point].

**Q.** With `COc1cc(/C=C/c2ccc3cccc([N+](=O)[O-])c3n2)ccc1OCC#N` as the compound, how does the Potency read?
**A.** Its Potency is inconclusive: 10.7 µM [inhibitor, partial curve, poor fit].

**Q.** How did the “activity change, negative = inhibition” value turn out when `CCOC(=O)CNC(=O)Cn1cnc2c(cnn2-c2ccc(C)cc2)c1=O` was run?
**A.** Its value is inactive: 0.182%.

**Q.** `COC(CNC(=S)Nc1ccc([N+](=O)[O-])cc1)OC` was tested. Which Potency did it give?
**A.** Its Potency is inconclusive: 23.9 µM [inhibitor, partial curve].

**Q.** How did the Potency turn out when `CN1CCc2c(sc(NC(=O)c3cc(Cl)sc3Cl)c2C(N)=O)C1` was run?
**A.** Its Potency is inconclusive: 30.1 µM [inhibitor, partial curve, poor fit].

**Q.** How did the “activity change, negative = inhibition” value turn out when `CCOC(=O)C(=CNNc1ccccc1)C(=O)OCC` was run?
**A.** Its value is inactive: 0.777%.

**Q.** For `CCOC(=O)c1cnc2c(cnn2C)c1NCCCN(C)C`, which “activity change, negative = inhibition” value is on record?
**A.** Its value is inactive: -2.6%.

**Q.** With `CC(=O)N1CCCC(C(=O)c2ccc3c4c(cccc24)CC3)C1` (centres undefined) as the compound, how does the Potency read?
**A.** The Potency was inconclusive: 37.9 µM [inhibitor, partial curve, poor fit].

**Q.** How did the Potency turn out when `O=C(Nc1nc2c(F)cc(F)cc2s1)c1ccco1` was run?
**A.** The Potency was active: 4.78 µM.

**Q.** For `Cc1nc2ccccc2c(=O)n1/N=C/c1ccc(O)c(O)c1O`, which Potency is on record?
**A.** Its Potency is inconclusive: 37.9 µM [inhibitor, partial curve, poor fit].

**Q.** `O=C(NC(CC(=O)N1CCN(c2ccc([N+](=O)[O-])cc2)CC1)c1ccccc1)c1ccccc1Cl` (centres undefined) was tested. Which “activity change, negative = inhibition” value did it give?
**A.** The value was inactive: 2.91%.

**Q.** How did the Potency turn out when `COc1cccc(/C=N/Nc2nc3ccccc3n3cnnc23)c1O` was run?
**A.** Its Potency is inconclusive: 26.9 µM [inhibitor, partial curve].

**Q.** For `O=C(c1ccc(COc2ccccc2Br)cc1)N1CCCCC1`, which Potency is on record?
**A.** Its Potency is inconclusive: 21.3 µM [inhibitor, single point].

**Q.** `O=S(=O)(N/N=C\c1cn(-c2ccccc2)nc1-c1ccccc1)c1ccccc1` was tested. Which Potency did it give?
**A.** The Potency was inconclusive: 23.9 µM [inhibitor, partial curve].

**Q.** With `Cc1ccccc1C(=O)Nc1nnc(S(=O)(=O)N(C)Cc2ccc(Cl)cc2)s1` as the compound, how does the Potency read?
**A.** The Potency was inconclusive: 13.5 µM [inhibitor, partial curve].

**Q.** For `CCCc1cc(C(=O)Nc2cc(C)on2)no1`, which Potency is on record?
**A.** The Potency was active: 21.3 µM.

**Q.** With `CCN1CCN(CCCNC(=O)CNC(=O)c2nn(-c3ccc(OC)cc3OC)c(=O)c3ccccc23)CC1` as the compound, how does the “activity change, negative = inhibition” value read?
**A.** Its value is inactive: -2.1%.

**Q.** How did the Potency turn out when `Cc1ccc(-c2nc(COC(=O)C3=NN(c4ccccc4)C(=O)CC3)cs2)cc1` was run?
**A.** The Potency was inconclusive: 26.9 µM [inhibitor, single point].

**Q.** Which “activity change, negative = inhibition” value does the source give for `O=C(NCCSCc1ccccc1Cl)C1CCN(S(=O)(=O)Cc2ccccc2)CC1` here?
**A.** Its value is inactive: -6.03%.

**Q.** `Cc1ccc(O)c(N)c1` was tested. Which Potency did it give?
**A.** The Potency was inconclusive: 7.57 µM [inhibitor, single point].

**Q.** With `C/C(=N\NC(=O)CCc1ccccc1)C1C(=O)c2ccccc2C1=O` as the compound, how does the Potency read?
**A.** Its Potency is inconclusive: 26.9 µM [inhibitor, single point].

**Q.** With `CCOC(=O)c1ccc(NC2=CC(c3ccc(O)c(OCC)c3)N(c3ccc(C(=O)OCC)cc3)C2=O)cc1` (centres undefined) as the compound, how does the “activity change, negative = inhibition” value read?
**A.** Its value is inactive: 3.94%.

**Q.** With `Cc1ccc(NC(=O)c2sc(=S)n(-c3cc(C)ccc3F)c2N)cc1` as the compound, how does the Potency read?
**A.** Its Potency is inconclusive: 19 µM [inhibitor, partial curve].

**Q.** `CCCN1CCN(CCNC(=O)Nc2cc(C)ccc2OC)CC1` was tested. Which “activity change, negative = inhibition” value did it give?
**A.** The value was inactive: 6.38%.

**Q.** With `FC(F)(F)c1ccnc(Oc2ccc(C3=NCCS3)cc2)c1` as the compound, how does the Potency read?
**A.** The Potency was active: 3.38 µM.

**Q.** `Cc1ccc(NC(=O)c2cccc(Oc3ccc([N+](=O)[O-])cc3)c2)c(C(=O)O)c1` was tested. Which Potency did it give?
**A.** The Potency was inconclusive: 37.9 µM [inhibitor, partial curve, poor fit].

**Q.** With `C=CCOc1ccc(/C=C\c2nc(O)c([N+](=O)[O-])c(=O)[nH]2)cc1OCC` as the compound, how does the Potency read?
**A.** Its Potency is inconclusive: 37.9 µM [inhibitor, partial curve, poor fit].

**Q.** With `O=C(COc1ccc(Br)cc1)Nc1ccc(C(=O)Nc2ccccc2C(=O)O)cc1` as the compound, how does the Potency read?
**A.** The Potency was inconclusive: 37.9 µM [inhibitor, single point].

**Q.** `COc1ccccc1Nc1cc(C(=O)NCc2cccnc2)c2ccccc2n1` was tested. Which Potency did it give?
**A.** Its Potency is active: 8.49 µM.

**Q.** How did the Potency turn out when `c1ccc(-c2ccc3[nH]ccc3c2)cc1` was run?
**A.** Its Potency is inconclusive: 26.9 µM [inhibitor, single point].

**Q.** With `O=C(CSc1nc(-c2ccc(F)cc2)cc(C(F)(F)F)n1)NCCN1CCOCC1` as the compound, how does the “activity change, negative = inhibition” value read?
**A.** The value was inactive: 10.2%.

**Q.** How did the Potency turn out when `CN1CCC(=NNC(=O)C(=O)Nc2ccccc2)CC1` was run?
**A.** The Potency was inconclusive: 37.9 µM [inhibitor, partial curve, poor fit].

**Q.** Which Potency does the source give for `COc1ccc(/C=N/NC(=O)c2nc(-c3ccccc3)cc(-c3ccccc3)n2)cc1OC` here?
**A.** The Potency was active: 2.39 µM.

— PubChem BioAssay AID588342 (National Center for Advancing Translational Sciences (NCATS), 2011)
